Assay results taken from patent publication US5326751A, “Enkephalin analogs” (Arizona Board of Regents on behalf of the University of …, priority 1992, dated 1994).
At least one peptide structure holds a part that was inferred or is arguable (an end, a ring closure or a residue). Bridge positions count the residues as written; N and C are the ends. Square brackets hold non-standard residues; d marks the D form. Peptide text beside a SMILES is read from it. Phe(4-NO2) = N[C@@H](Cc1ccc([N+](=O)[O-])cc1)C(=O)O; Phe(4-Br) = N[C@@H](Cc1ccc(Br)cc1)C(=O)O; Phe(4-Cl) = N[C@@H](Cc1ccc(Cl)cc1)C(=O)O; Phe(4-F) = N[C@@H](Cc1ccc(F)cc1)C(=O)O; Phe(4-I) = N[C@@H](Cc1ccc(I)cc1)C(=O)O; dPen = CC(C)(S)[C@@H](N)C(=O)O; dAbu = CC[C@@H](N)C(=O)O; Ac5c = NC1(C(=O)O)CCCC1

Columns and labels:
[1] = biological target: T1, mouse vas deferens (MVD), primarily delta-type opiate receptors (Mus musculus, UniProt P32300); assay: mouse vas deferens (MVD) assay: inhibition of electrically induced muscle contractions; type: cell-based; settings: GPI IC50 / MVD IC50
T1 construct: from tissue; host or cells: mouse vas deferens
Protocol: The MVD preparation contains primarily delta-type opiate receptors, with some kappa and mu receptors.
The mouse vas deferens was prepared following the method of Hughes, et al. cites Brit. J. Pharmacol., 53, 371-381 (1975). One pair of vasa deferentia was used in each experiment.

[2] = biological target: T2, delta-type opioid receptors (Rattus norvegicus, UniProt P33533); assay: displacement of [3H][p-Cl-Phe4]DPDPE in rat brain homogenate; type: binding; settings: [3H]CTOP IC50 / [3H]p-Cl-DPDPE IC50, rat brain
T2 construct: Whole brains with cerebellum removed were homogenized in 100 volumes of Tris-HCl buffer; from tissue; host or cells: rat brain (without cerebellum), washed homogenate
Protocol: The binding potencies of each compound for mu and delta receptors in rat brain extracts was determined by competition assays against radiolabelled compounds known to bind opioid receptors. […] The ability of a tested compound to displace tritiated ligands from their respective receptor molecules is a measure of the compound's binding potency for the receptor of the displaced ligand.
Brains from male Sprague-Dawley rats were rapidly removed following sacrifice. Whole brains with cerebellum removed were homogenized in 100 volumes of Tris-HCl buffer (pH 7.4 at 25°). Tissue homogenates were washed twice in the same buffer by centrifugation at 48,000 g for 10 min. Pellets were resuspended in the same buffer.
Total incubation volume was 2 ml. After 40 min., the mixture was rapidly filtered through Whatman GF/B glass fiber filters and washed 3 times with 5 ml of ice-cold buffer.
Filter-bound radioactivity was quantitated by liquid scintillation spectrophotometry with an efficiency of 46%. Radio-ligand displaced by 1 μM natrexone hydrochloride was defined as specific tissue binding.

delta receptors = delta receptors (Homo sapiens, UniProt P41143); settings: in words; cited from earlier work
Chain of delta receptors (P41143 whole entry): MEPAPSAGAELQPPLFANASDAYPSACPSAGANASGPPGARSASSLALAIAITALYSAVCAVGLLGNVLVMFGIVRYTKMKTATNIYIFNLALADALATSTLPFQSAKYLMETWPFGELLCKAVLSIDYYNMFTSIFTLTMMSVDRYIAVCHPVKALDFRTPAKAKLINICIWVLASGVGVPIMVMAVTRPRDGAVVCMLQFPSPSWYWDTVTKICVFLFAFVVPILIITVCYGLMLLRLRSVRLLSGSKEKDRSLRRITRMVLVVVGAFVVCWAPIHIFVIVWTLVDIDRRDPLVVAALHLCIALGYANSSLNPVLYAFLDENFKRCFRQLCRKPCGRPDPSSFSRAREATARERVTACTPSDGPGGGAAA

T2 sequence (P33533 whole entry): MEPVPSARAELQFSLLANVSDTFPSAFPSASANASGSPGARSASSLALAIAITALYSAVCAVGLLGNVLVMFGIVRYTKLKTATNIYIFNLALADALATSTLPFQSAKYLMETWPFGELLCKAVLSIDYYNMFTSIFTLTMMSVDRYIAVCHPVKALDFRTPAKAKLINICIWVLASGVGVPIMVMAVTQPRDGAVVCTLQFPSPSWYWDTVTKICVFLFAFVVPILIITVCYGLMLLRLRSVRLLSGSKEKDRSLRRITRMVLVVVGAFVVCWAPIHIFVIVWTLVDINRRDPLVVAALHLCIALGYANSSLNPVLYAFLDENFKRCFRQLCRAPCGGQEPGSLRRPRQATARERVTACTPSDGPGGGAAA
T1 sequence (P32300 whole entry): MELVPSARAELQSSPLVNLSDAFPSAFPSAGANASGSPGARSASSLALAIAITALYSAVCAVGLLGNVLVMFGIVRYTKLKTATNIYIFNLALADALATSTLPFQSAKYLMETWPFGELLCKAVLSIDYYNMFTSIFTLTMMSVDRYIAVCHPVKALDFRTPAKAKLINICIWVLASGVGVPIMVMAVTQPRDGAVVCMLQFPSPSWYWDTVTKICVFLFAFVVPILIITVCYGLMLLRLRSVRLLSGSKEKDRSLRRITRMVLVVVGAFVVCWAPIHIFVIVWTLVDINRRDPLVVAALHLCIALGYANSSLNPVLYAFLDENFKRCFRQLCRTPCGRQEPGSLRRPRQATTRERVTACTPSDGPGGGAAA

Row | Compound | RATIO (μ/δ), Table 1 [1] | RATIO (μ/δ), Table 2 [2] | binding potency at delta receptors (delta receptors)
1 | C[C@@H]1NC(=O)[C@H](NC(=O)[C@@H](N)Cc2ccc(O)cc2)C(C)(C)SSC(C)(C)[C@H](C(=O)O)NC(=O)[C@H](Cc2ccc(I)cc2)NC1=O [[p-I--Phe^4 ]DPADPE] (H-Y[dPen]A[Phe(4-I)][dPen]-OH; disulfide 2-5) | 2,809 | 293 | –
2 | CC1(C)SSC(C)(C)[C@@H](NC(=O)[C@@H](N)Cc2ccc(O)cc2)C(=O)NC2(CCCC2)C(=O)N[C@@H](Cc2ccccc2)C(=O)N[C@H]1C(=O)O [[AC5 C^3]DPDPE] (H-Y[dPen][Ac5c]F[dPen]-OH; disulfide 2-5) | 2.3 | 5.6 | –
3 | C[C@@H]1NC(=O)[C@H](NC(=O)[C@@H](N)Cc2ccc(O)cc2)C(C)(C)SSC(C)(C)[C@H](C(=O)O)NC(=O)[C@H](Cc2ccc(Br)cc2)NC1=O [[p-Br--Phe^4 ]DPADPE] (H-Y[dPen]A[Phe(4-Br)][dPen]-OH; disulfide 2-5) | 13,823 | 511 | –
4 | CC1(C)SSC(C)(C)[C@@H](NC(=O)[C@@H](N)Cc2ccc(O)cc2)C(=O)N[C@@H](CO)C(=O)N[C@@H](Cc2ccccc2)C(=O)N[C@H]1C(=O)O [[L--Ser^3]DPDPE] (H-Y[dPen]SF[dPen]-OH; disulfide 2-5) | – | – | did not demonstrate a high binding potency at delta receptors
5 | C[C@@H]1NC(=O)[C@H](NC(=O)[C@@H](N)Cc2ccc(O)cc2)C(C)(C)SSC(C)(C)[C@H](C(=O)O)NC(=O)[C@H](Cc2ccc(F)cc2)NC1=O [[p-F--Phe^4 ]DPADPE] (H-Y[dPen]A[Phe(4-F)][dPen]-OH; disulfide 2-5) | 1,276 | 2653 | –
6 | C[C@@H]1NC(=O)[C@H](NC(=O)[C@@H](N)Cc2ccc(O)cc2)C(C)(C)SSC(C)(C)[C@H](C(=O)O)NC(=O)[C@H](Cc2ccc(Cl)cc2)NC1=O [[p-Cl--Phe^4 ]DPADPE] (H-Y[dPen]A[Phe(4-Cl)][dPen]-OH; disulfide 2-5) | 13,129 | 303 | –
7 | C[C@H]1NC(=O)[C@H](NC(=O)[C@@H](N)Cc2ccc(O)cc2)C(C)(C)SSC(C)(C)[C@H](C(=O)O)NC(=O)[C@H](Cc2ccccc2)NC1=O [[D--Ala^3]DPDPE] (H-Y[dPen][dA]F[dPen]-OH; disulfide 2-5) | 58.2 | > 65 | –
8 | CC[C@H]1NC(=O)[C@H](NC(=O)[C@@H](N)Cc2ccc(O)cc2)C(C)(C)SSC(C)(C)[C@H](C(=O)O)NC(=O)[C@H](Cc2ccccc2)NC1=O [[D--Abu^3]DPDPE] (H-Y[dPen][dAbu]F[dPen]-OH; disulfide 2-5) | 15 | > 14.8 | –
9 | C[C@@H]1NC(=O)[C@H](NC(=O)[C@@H](N)Cc2ccc(O)cc2)C(C)(C)SSC(C)(C)[C@H](C(=O)O)NC(=O)[C@H](Cc2ccc([N+](=O)[O-])cc2)NC1=O [[p-NO2 --Phe^4 ]DPADPE] (H-Y[dPen]A[Phe(4-NO2)][dPen]-OH; disulfide 2-5) | 3,597 | 203 | –
10 | CC1(C)SSC(C)(C)[C@@H](NC(=O)[C@@H](N)Cc2ccc(O)cc2)C(=O)N[C@H](CO)C(=O)N[C@@H](Cc2ccccc2)C(=O)N[C@H]1C(=O)O [[D--Ser^3]DPDPE] (H-Y[dPen][dS]F[dPen]-OH; disulfide 2-5) | > 79 | > 65 | –
